Results from publication PMC6395754.
These are yes or no findings as the source states them, for the method shown. Binding seen in cells or lysates may run through a third protein. Some entries that bind do so weakly or less than the wild type.

Chains of the proteins cited; added tags and fusions are not shown. Lines headed by an entry give the natural chain unless they say otherwise; changes in a name come on top. A line that says so, or that is headed by a name, gives the form on record, which may keep a tag or linker.
UniProt P07737: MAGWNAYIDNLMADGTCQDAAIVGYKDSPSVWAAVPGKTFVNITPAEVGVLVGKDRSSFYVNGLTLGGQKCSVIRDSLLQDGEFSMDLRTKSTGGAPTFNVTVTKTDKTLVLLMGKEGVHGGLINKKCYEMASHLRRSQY
UniProt O60610: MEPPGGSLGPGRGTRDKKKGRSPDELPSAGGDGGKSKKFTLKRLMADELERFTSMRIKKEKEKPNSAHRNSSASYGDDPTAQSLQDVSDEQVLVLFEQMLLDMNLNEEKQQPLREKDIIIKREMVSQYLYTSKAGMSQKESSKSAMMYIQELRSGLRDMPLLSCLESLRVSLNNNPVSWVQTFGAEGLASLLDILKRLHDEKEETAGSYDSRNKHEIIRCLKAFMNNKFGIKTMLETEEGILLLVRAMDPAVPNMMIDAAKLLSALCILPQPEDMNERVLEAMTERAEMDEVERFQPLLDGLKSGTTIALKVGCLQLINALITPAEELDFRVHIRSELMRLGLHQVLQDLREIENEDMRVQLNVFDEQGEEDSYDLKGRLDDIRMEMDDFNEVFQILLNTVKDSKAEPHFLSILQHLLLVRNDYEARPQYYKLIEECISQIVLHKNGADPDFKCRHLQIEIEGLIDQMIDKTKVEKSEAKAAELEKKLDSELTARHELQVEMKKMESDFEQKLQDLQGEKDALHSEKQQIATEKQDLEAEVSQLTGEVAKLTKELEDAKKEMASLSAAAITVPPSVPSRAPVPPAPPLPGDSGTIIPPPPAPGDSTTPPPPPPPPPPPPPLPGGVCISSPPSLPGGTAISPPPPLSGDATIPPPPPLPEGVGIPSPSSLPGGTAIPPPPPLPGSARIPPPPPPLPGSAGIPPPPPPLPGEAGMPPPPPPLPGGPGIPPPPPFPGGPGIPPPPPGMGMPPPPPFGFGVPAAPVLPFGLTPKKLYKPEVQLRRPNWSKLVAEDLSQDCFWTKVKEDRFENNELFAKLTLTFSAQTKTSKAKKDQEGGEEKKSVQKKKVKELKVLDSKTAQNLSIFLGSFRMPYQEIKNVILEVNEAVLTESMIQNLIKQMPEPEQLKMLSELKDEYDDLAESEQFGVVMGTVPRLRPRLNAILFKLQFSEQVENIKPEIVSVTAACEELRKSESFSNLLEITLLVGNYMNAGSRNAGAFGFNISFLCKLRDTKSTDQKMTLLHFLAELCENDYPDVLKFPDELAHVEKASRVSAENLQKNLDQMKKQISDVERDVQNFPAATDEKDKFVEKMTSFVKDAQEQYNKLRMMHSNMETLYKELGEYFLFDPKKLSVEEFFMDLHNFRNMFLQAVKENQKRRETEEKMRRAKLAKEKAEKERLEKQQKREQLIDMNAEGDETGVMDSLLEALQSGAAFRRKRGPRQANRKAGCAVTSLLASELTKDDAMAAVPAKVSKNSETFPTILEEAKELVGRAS
3×FLAG-DIAPH1-3D (629D/640D/665D) (O60610, form named): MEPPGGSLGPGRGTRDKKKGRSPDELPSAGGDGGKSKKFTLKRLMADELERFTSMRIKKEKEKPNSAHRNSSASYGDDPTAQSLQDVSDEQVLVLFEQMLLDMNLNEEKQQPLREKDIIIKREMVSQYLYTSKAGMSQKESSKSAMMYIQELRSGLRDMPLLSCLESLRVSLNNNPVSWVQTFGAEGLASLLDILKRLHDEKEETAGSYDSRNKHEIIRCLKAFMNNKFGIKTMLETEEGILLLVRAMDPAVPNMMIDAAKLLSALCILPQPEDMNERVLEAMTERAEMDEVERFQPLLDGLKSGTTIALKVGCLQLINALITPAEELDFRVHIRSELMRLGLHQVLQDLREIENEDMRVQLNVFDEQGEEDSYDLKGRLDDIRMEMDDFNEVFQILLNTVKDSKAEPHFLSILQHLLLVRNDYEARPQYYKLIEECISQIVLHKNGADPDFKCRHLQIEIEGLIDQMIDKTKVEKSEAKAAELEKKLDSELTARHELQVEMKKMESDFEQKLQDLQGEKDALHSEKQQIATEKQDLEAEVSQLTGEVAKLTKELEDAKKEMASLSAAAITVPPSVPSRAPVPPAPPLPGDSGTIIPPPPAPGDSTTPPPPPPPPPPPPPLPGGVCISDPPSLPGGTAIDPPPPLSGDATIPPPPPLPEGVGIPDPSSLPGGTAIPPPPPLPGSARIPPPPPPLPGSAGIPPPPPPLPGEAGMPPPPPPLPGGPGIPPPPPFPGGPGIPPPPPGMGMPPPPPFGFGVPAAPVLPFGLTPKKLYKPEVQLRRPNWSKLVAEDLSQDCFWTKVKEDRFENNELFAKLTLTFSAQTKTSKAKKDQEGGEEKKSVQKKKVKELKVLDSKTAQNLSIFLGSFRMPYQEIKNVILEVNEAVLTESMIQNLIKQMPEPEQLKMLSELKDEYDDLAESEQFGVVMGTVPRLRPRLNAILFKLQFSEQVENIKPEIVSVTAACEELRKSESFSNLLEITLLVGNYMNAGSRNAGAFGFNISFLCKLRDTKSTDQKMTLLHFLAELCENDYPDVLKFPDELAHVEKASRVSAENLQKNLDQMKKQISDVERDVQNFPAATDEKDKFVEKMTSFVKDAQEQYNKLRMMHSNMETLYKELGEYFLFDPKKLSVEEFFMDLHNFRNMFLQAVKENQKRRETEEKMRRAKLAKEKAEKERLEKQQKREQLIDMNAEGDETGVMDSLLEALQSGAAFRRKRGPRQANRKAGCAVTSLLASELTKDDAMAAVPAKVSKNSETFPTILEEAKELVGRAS
3×FLAG-DIAPH1-4D (607D/629D/640D/665D) (O60610, form named): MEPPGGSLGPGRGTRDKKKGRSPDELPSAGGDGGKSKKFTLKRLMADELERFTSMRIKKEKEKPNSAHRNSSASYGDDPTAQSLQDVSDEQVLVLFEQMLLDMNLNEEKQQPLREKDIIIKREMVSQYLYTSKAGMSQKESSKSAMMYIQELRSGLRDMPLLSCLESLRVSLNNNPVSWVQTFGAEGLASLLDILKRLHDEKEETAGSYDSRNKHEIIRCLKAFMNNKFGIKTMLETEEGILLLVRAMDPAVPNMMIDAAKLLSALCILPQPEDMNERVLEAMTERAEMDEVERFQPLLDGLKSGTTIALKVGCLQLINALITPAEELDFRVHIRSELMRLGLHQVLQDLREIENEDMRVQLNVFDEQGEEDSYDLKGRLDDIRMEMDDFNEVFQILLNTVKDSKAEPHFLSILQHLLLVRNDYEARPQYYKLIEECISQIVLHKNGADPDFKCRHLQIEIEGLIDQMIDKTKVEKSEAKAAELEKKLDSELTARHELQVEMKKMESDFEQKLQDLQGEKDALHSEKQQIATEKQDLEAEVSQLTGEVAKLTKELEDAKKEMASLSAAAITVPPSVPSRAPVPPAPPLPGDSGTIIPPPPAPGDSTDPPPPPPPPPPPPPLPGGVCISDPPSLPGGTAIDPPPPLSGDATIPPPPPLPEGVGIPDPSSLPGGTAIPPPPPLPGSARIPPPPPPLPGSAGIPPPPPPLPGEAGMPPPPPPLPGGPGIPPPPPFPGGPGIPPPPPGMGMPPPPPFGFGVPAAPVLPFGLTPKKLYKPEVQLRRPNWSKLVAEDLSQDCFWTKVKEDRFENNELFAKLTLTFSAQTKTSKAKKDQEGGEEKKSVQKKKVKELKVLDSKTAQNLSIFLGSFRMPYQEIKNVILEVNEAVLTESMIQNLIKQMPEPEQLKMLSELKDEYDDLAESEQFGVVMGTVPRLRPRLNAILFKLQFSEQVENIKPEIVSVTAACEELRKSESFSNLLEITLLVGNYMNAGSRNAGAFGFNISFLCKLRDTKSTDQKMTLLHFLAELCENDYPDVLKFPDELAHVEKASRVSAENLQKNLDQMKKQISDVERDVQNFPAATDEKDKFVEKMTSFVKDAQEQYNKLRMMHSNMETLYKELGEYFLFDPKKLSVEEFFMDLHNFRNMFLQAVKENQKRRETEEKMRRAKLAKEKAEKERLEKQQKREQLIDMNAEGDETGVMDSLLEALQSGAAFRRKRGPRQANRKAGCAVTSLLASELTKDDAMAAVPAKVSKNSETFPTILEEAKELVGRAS

biological target: GST-profilin1 (PFN1) (UniProt P07737); assay: condition: 5 μg of bead-associated GST-PFN1 with 1 mg of cell lysate proteins; pull-down; 5 μg of bead-associated GST-PFN1 incubated with 1 mg of HeLa cell lysate proteins (TBSN buffer) for 1.5 h, washed with TBSN buffer, immunoblot; lysates of cells without nocodazole (for actin, 3A and 4A: with and without nocodazole); only the target purified

Row | binding | Substance
1 | no binding | 3×FLAG-DIAPH1-3D (629D/640D/665D) (from UniProt O60610 1-1272)
2 | no binding | 3×FLAG-DIAPH1-4D (607D/629D/640D/665D) (from UniProt O60610 1-1272)

biological target: GST-profilin1 (PFN1) (UniProt P07737); assay: pull-down; 5 μg of bead-associated GST-PFN1 incubated with 1 mg of lysate proteins (TBSN buffer) for 1.5 h, washed with TBSN buffer, immunoblot; lysates of HeLa cells treated with nocodazole for 18 h and collected by mitotic shake-off; only the target purified

Row | binding | Substance
3 | binds weakly | 3×FLAG-DIAPH1-S629A (from UniProt O60610 1-1272)
4 | binds weakly | 3×FLAG-DIAPH1-S665A (from UniProt O60610 1-1272)

biological target: GST-profilin1 (PFN1) (UniProt P07737); assay: pull-down; 5 μg of bead-associated GST-PFN1 incubated with 1 mg of HeLa cell lysate proteins (TBSN buffer) for 1.5 h, washed with TBSN buffer, immunoblot; lysates of cells without nocodazole (for actin, 3A and 4A: with and without nocodazole); only the target purified

Row | Substance | binding
5 | 3×FLAG-DIAPH1-4A (T607A/S629A/S640A/S665A) (from UniProt O60610 1-1272) | binds
6 | 3×FLAG-DIAPH1-S665D (from UniProt O60610 1-1272) | binds
7 | 3×FLAG-DIAPH1-T607D (from UniProt O60610 1-1272) | binds

Second part, the substance after the results:

Row | binding | Substance
8 | binds | 3×FLAG-DIAPH1-3A (S629A/S640A/S665A) (from UniProt O60610 1-1272)
9 | binds | 3×FLAG-DIAPH1-S629D (from UniProt O60610 1-1272)
10 | binds | 3×FLAG-DIAPH1-S640D (from UniProt O60610 1-1272)
